From PubChem BioAssay AID504333 (National Center for Advancing Translational Sciences (NCATS), 2011)
About 16,000 (4.4%) of roughly 360,000 compounds were called active. This list was built around the results that the source calls inconclusive (neither active nor inactive); the mix of calls is not that of the screen. Calls follow the shape of the dose curve; as a rule, active = well fitted inhibition curve with a large enough effect; inconclusive = small, poorly fitted or top-dose-only effect; inactive = no such curve, though single readings can be large or run the other way. Potencies beside an inconclusive call are fits to weak or partial responses and may not hold up.

molecular target: Bromodomain adjacent to zinc finger domain protein 2B (Homo sapiens) (UniProt Q9UIF8); assay: qHTS Assay for Inhibitors of BAZ2B; settings: AlphaScreen BAZ2B-H3K14Ac peptide displacement; series mostly up to 114 µM; also: nearly all actives have a fitted effect of over 60% in size
Method in brief: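 AlphaScreen displacement: compounds (up to 110uM) incubated 30 min at room temperature with a preformed 50 nM BAZ2B/50 nM biotinylated H3K14Ac peptide complex in PBS pH 7.4 with Tween-20. Donor and acceptor beads at 10 ug/mL final added, 20 min light-protected before reading.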
Potency is read from the fitted curve at half-maximal effect; tags tell the direction and shape of the fitted curve.

Sequence of UniProt Q9UIF8 (Q9UIF8 whole entry, looked up, the tested form may be a part): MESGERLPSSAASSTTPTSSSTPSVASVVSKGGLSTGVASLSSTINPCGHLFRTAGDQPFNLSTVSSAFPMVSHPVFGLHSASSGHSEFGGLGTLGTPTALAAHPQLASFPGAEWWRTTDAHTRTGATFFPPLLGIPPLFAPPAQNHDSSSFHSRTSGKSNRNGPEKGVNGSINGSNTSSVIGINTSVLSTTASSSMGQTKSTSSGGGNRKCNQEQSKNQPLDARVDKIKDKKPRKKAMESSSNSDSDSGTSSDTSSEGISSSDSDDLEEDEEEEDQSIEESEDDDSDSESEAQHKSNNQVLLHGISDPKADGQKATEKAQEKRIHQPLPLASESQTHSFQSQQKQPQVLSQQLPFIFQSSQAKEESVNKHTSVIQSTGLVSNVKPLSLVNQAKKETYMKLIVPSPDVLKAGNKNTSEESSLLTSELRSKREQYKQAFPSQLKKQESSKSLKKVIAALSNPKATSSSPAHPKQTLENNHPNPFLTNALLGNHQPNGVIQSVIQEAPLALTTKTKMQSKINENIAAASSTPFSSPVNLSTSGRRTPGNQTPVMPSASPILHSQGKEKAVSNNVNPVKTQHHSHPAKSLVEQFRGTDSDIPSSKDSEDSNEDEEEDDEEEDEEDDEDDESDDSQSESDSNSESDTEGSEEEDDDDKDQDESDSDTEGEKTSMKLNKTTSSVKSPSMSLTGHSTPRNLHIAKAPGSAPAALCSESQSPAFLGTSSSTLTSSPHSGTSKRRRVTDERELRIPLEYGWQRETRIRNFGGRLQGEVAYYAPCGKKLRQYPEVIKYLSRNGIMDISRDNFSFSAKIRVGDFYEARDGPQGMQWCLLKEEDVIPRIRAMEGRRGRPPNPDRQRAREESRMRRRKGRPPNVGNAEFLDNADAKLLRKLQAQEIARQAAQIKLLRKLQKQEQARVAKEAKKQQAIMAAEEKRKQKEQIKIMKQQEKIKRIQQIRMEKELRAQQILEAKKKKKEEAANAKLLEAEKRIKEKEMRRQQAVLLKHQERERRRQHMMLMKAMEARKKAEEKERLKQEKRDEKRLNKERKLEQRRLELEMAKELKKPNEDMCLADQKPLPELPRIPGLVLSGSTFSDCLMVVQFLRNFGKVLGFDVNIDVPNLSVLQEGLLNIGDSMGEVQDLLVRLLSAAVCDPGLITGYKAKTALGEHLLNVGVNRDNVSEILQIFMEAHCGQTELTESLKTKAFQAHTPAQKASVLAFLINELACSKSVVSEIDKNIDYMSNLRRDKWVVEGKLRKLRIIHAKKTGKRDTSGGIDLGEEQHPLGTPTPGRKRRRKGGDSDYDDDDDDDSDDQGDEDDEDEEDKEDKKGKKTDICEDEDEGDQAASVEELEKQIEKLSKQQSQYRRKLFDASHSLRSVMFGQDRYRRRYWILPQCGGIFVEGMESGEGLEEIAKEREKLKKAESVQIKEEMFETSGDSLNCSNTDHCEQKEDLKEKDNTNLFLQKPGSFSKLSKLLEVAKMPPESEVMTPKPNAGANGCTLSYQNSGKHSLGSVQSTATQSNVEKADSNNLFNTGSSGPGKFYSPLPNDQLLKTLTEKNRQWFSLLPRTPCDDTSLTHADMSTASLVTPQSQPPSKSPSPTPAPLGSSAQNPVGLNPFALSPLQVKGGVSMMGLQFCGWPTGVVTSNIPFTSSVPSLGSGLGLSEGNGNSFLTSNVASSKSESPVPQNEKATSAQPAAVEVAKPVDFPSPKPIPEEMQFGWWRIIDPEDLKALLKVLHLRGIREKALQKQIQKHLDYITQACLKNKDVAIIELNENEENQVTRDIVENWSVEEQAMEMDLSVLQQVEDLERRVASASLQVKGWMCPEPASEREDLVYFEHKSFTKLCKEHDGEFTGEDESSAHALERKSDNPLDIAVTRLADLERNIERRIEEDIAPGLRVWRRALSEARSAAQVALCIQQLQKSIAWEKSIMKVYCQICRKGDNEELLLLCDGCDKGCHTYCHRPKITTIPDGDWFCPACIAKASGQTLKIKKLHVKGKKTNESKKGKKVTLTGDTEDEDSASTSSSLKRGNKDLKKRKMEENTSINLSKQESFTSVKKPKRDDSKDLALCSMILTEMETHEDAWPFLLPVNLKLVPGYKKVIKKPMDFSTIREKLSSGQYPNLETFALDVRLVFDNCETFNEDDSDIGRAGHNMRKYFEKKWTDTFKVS

SMILES | Potency
COc1ccc(C(=O)c2c(NC(C)=O)sc3c2CCN(C(=O)OC(C)(C)C)C3)cc1 | inconclusive: 50.1 µM [inhibitor, partial curve]
O=C(COC(=O)Cn1cnc2ccccc21)NCCC1=CCCCC1 | inconclusive: 89.1 µM [inhibitor, single point]
O=C(CCC(=O)N1CCN(c2ccc(F)cc2)CC1)c1ccccc1 | inconclusive: 79.4 µM [inhibitor, single point]
COc1ccc(NC(=O)C2CSC3c4ccccc4C(=O)N23)cc1 (stereo unspecified) | inconclusive: 79.4 µM [inhibitor, partial curve]
COc1ccccc1NC(=O)Nc1nc(CC(=O)N2CCN(c3ccccc3OC)CC2)cs1 | inconclusive: 44.7 µM [inhibitor, partial curve]
COCCCNC(=O)c1cccn2c(=O)c3cc4ccccc4cc3nc12 | inconclusive: 44.7 µM [inhibitor, partial curve]
Cc1sc2c(c1C)c(=O)n(CCc1ccccc1)c(=O)n2Cc1ccc(C(C)(C)C)cc1 | inactive
CCOC(=O)Oc1c(OC)cc(C(=O)O[C@@H]2C[C@@H]3CN4CCc5c([nH]c6cc(OC)ccc56)[C@H]4C[C@@H]3[C@H](C(=O)OC)[C@H]2OC)cc1OC | inconclusive: 22.4 µM [inhibitor, full curve]
Cc1ccc(C)c(-n2[nH]c3c4c(ccc3c2=O)C(=O)c2ccccc2C4=O)c1 | active: 44.7 µM
Cn1c(=O)c2sccc2n2c(CCCC(=O)Nc3ccc(Oc4ccccc4)cc3)nnc12 | inconclusive: 79.4 µM [inhibitor, single point]
Cc1ccccc1-n1c(SCC(=O)N2CCOCC2)nc(O)c(Cc2ccccc2)c1=O | inactive
O=C(Nc1ccc(-c2ccco2)cc1)C1CCCN(Cc2ccc(CO)o2)C1 (stereo unspecified) | inconclusive: 79.4 µM [inhibitor, partial curve]
O=C1CSC(c2cn(-c3ccccc3)nc2-c2ccccc2)N1Cc1ccco1 (stereo unspecified) | inconclusive: 89.1 µM [inhibitor, single point]
CC12CS(=O)(=O)CC1SC(=S)N2c1ccccn1 (stereo unspecified) | inactive
CCCn1c(C(C)C)n[nH]c1=S | inactive
COc1ccc(N2CCN(S(=O)(=O)c3ccc4c(c3)C(C(C)C)C(=O)N4)CC2)cc1 (stereo unspecified) | inconclusive: 35.5 µM [inhibitor, single point]
CCC(C)(C)NC(=O)C(c1cccn1C)N(C(=O)Cn1nnc2ccccc21)c1ccccc1OC (stereo unspecified) | inconclusive: 70.8 µM [inhibitor, single point]
O=C(Nc1ccc([N+](=O)[O-])cc1)c1cccc(S(=O)(=O)Nc2cccnc2)c1 | inconclusive: 89.1 µM [inhibitor, single point]
N#C/C(=N\Nc1ccc([N+](=O)[O-])cc1)C(=N)N1CCOCC1 | inactive
O=C(NNc1c2ccccc2nc2ccccc12)c1ccccc1O | active: 7.94 µM
Cc1n[nH]c(C)c1CCNC(=O)C1CCC(=O)N(Cc2ccccc2F)C1 (stereo unspecified) | inconclusive: 89.1 µM [inhibitor, single point]
Cc1ccc(N2CC(C(=O)NC3CC3)CC2=O)cc1Cl (stereo unspecified) | inactive
CC12CCC(=O)N1C(C(=O)OCc1c(Cl)cccc1Cl)CS2 (stereo unspecified) | inactive
CC(C)(C)NC(=O)CSc1nnc(-c2ccccn2)n1Cc1ccccc1 | inconclusive: 89.1 µM [inhibitor, single point]

SMILES | Potency
O=C(Nc1cccc(-c2cn3cccnc3n2)c1)c1ccc(Br)o1 | inconclusive: 89.1 µM [inhibitor, single point]
N#Cc1nc(-c2cccc3ccccc23)oc1NCCN1CCCCC1 | inconclusive: 50.1 µM [inhibitor, partial curve]
O=C(c1ccc2ccccc2c1)N1CCN(c2ccccc2)CC1 | inconclusive: 89.1 µM [inhibitor, single point]
Cn1cccc1C(=O)NCc1ccc(Cl)cc1 | inconclusive: 44.7 µM [inhibitor, partial curve]
O=C(CCCSc1nc2ccccc2[nH]1)Nc1nnc(-c2ccccc2)o1 | inconclusive: 89.1 µM [inhibitor, single point]
O=C1CCC(C(=O)OCC(=O)N2N=C3/C(=C/c4ccccc4)CCCC3C2c2ccccc2)N1 (stereo unspecified) | inconclusive: 89.1 µM [inhibitor, single point]
Nc1nc(-c2ccccc2)c(N=Nc2ccccc2Cl)s1 | active: 10 µM
O=C(N/N=C/c1ccc(N2CCOCC2)s1)c1ccccc1Cl | inactive
CC(C)(C)C1=Nn2c(nnc2C2CCCCC2)SC1 | inconclusive: 70.8 µM [inhibitor, partial curve]
COc1ccc(NC(=O)CSc2oc(-c3cccs3)nc2S(=O)(=O)c2ccccc2)c(OC)c1 | inactive
Oc1ccc(C(c2nnnn2CCc2ccccc2)N2CCN(c3nc4ccccc4s3)CC2)cc1 (stereo unspecified) | inactive
COc1ccc(C(=O)c2cn(Cc3ccccc3F)c3cc4c(cc3c2=O)OCCO4)cc1OC | inactive
CCOc1ccccc1N1CCN(S(=O)(=O)c2cccc3nsnc23)CC1 | inconclusive: 28.2 µM [inhibitor, partial curve]
COc1ccc(C(C)=O)cc1COC(=O)CSCC(=O)Nc1ccc(C)cc1 | active: 79.4 µM
Cc1[nH]c2ccccc2c1-c1csc(N)n1 | inconclusive: 50.1 µM [inhibitor, partial curve]
COc1ccc(N(CC(=O)Nc2cccc(C)c2)S(=O)(=O)c2c(C)n[nH]c2C)cc1 | inconclusive: 89.1 µM [inhibitor, single point]
COc1cccc(OCc2cc(/C=N/Nc3ccc(C(=O)O)cc3)ccc2OC)c1 | active: 56.2 µM
CC(=O)c1ccc(NC(=O)CSc2nnc(-c3ccoc3C)n2Cc2ccccc2)cc1 | inconclusive: 44.7 µM [inhibitor, partial curve]
Cc1cc(N2C(=O)C(O)=C(C(=O)c3ccco3)C2c2cccc(O)c2)no1 (stereo unspecified) | inconclusive: 79.4 µM [inhibitor, single point]
COc1ccc(NC(=O)Cc2cccc3ccccc23)cc1 | inconclusive: 89.1 µM [inhibitor, single point]
CN1CCN(c2nc(-c3ccc(Br)cc3)nnc2-c2ccccc2)CC1 | inconclusive: 50.1 µM [inhibitor, partial curve]
CC(=O)c1ccc(S(=O)(=O)N2CCCC(N(C)CCc3ccccc3)C2)cc1 (stereo unspecified) | inconclusive: 70.8 µM [inhibitor, single point]
O=C(O)c1cc(/C=N\O)ccc1OCc1ccccc1 | inactive
COc1ccc(OC)c(S(=O)(=O)N2CCC(n3c(C)nc4cccnc43)CC2)c1 | inactive

SMILES | Potency
Cc1ccccc1CN1C[C@@H]2C[C@@H](c3cn(C)nc3-c3ccccc3)N3CCC[C@@]23C1=O | inconclusive: 31.6 µM [inhibitor, partial curve]
CC1(C)C(=O)OC(c2cccs2)C(C)(C)C1=O (stereo unspecified) | inconclusive: 89.1 µM [inhibitor, single point]
CC(C)c1cc(C(=O)O)n(-c2ccccc2)n1 | inconclusive: 3.98 µM [inhibitor, full curve, poor fit]
CC1=CC(C)(C)Nc2ccc(OC(=O)CN3C(=O)C4CCCCC4C3=O)cc21 (stereo unspecified) | active: 56.2 µM
CCc1ccc(S(=O)(=O)NCc2ccc3c(c2)CCN3C(=O)c2ccc(C)cc2)cc1 | inactive
CCOC(=O)c1c(C)sc(-c2c(-c3ccccc3)[nH]c3[nH]c(=O)[nH]c(=O)c23)c1O | inconclusive: 63.1 µM [inhibitor, partial curve, poor fit]
O=C(c1cccs1)N1CCc2ccccc2C1 | inconclusive: 79.4 µM [inhibitor, single point]
Cc1nc(C(=O)N/N=C/c2[nH]ncc2Br)cs1 | inconclusive: 89.1 µM [inhibitor, single point]
CC(C)CCNC(=O)NC(=O)CN1C(=O)NC2(CCCCC2)C1=O | inconclusive: 3.55 µM [inhibitor, single point]
Clc1nc(-c2n[nH]nc2Cl)n[nH]1 | inactive
CCCCN1C=CC(=C2C(=O)c3ccccc3C2=O)C=C1 | inactive
COc1ccc(/C=N/NC(=S)Nc2ccccc2[N+](=O)[O-])cc1O | inconclusive: 44.7 µM [inhibitor, partial curve]
CC(=O)c1ccc(NC(=O)C2CCN(c3nnc(C)c4c(C)n(-c5ccccc5)nc34)CC2)cc1 | inconclusive: 89.1 µM [inhibitor, single point]
CC(C)OCCCn1c(=O)c2ccccc2n2c(-c3ccccc3)nnc12 | active: 50.1 µM
Cc1cc(C(=O)COc2cccc3cccnc23)c(C)n1C | active: 11.2 µM
O=C(NN=C1CCCC1)c1ccc(Cl)cc1 | inconclusive: 0.708 µM [inhibitor, full curve, poor fit]
CC(=O)Nc1ccc(C(=O)NCCCOC(C)C)cc1 | inactive
COc1ccc(CCN(C)C(=O)C2CCN(Cc3ccccc3)CC2)cc1OC | inactive
CCCC(NC(=O)Cc1c(C)c2c(cc(C)c3c(C)coc32)oc1=O)C(=O)O (stereo unspecified) | inactive
CCn1c(/N=C/c2c[nH]c3ccccc23)nc2ccccc21 | inconclusive: 50.1 µM [inhibitor, partial curve]
CCN(CC)CCN1c2ccccc2Sc2ccc3ccccc3c21 | inconclusive: 70.8 µM [inhibitor, single point]
Cc1cccc(NC(=S)N/N=C/c2c[nH]c3ccccc23)c1 | active: 50.1 µM
COc1ccc(CCNCC(=O)Nc2ccccc2C(F)(F)F)cc1 | active: 50.1 µM
